This is an account of results in PMC3353549 (Developmental Cell, 2012).

This test concerns the target histone H4 (recombinant) (human, UniProt P62805). As to the kind of experiment: SEC.

B1: CENP-A^H115A/L128A (recombinant) (natural protein)
chain: not shown
As for B1, the binding result is given as “binds”.
